Test results published in the BET-seq Pho4 binding data (Le et al. 2018).
The other results are listed elsewhere or left out. The energies were worked out here from pooled read counts, against the library average; single values are noisy.

biological target: T1, Pho4 (S. cerevisiae) (UniProt P07270); assay: relative binding free energy (BET-seq); higher = weaker binding; conditions: reference: library average
T1 sequence: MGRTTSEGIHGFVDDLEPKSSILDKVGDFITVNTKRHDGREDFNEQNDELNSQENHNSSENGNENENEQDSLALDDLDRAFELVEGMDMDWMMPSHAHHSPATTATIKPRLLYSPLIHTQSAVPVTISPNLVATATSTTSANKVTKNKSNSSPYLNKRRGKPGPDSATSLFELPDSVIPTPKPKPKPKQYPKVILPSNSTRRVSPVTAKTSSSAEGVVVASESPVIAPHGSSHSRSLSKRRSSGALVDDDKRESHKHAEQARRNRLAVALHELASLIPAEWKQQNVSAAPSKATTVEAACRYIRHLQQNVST

Relative binding free energy, 0.2 kcal/mol:
GGATACACGTGAGGGC, TGTGTCACGTGTAAGC, TTTGGCACGTGAGTAA, AAGGTCACGTGAGGCT, GGTGTCACGTGATATT, GTGGACACGTGTATAT, AAGGTCACGTGTCTGG

Relative binding free energy, -0.18 kcal/mol:
GGAGCCACGTGGGGCT, TATGGCACGTGCCTGG

Relative binding free energy, 0.54 kcal/mol:
GCGTTCACGTGTCGTT

Relative binding free energy, -0.1 kcal/mol:
AGCGGCACGTGGTAAT, CGGAGCACGTGGCGTT, AATGACACGTGGTGAT, ATTTGCACGTGGTACA, TTTAACACGTGCTTTT, CAGGGCACGTGGGTAT

Relative binding free energy, -0.12 kcal/mol:
TGTGGCACGTGGACGC, CGTGACACGTGTAGGG, AGGGGCACGTGGTCTT, TGCGACACGTGGGGCT

Relative binding free energy, -0.19 kcal/mol:
GGAAGCACGTGTGGCG, TATGGCACGTGCTGCG, TAGCGCACGTGTCGGG, AGGGCCACGTGGGGAA

Relative binding free energy, -0.05 kcal/mol:
TGTGACACGTGCGGTG, ACGTGCACGTGTGTAA, TTTGTCACGTGGGTAC

Relative binding free energy, 0.03 kcal/mol:
CTTTCCACGTGTGGGG, GGGAGCACGTGTGTTC, TTTTACACGTGGTATA, TTAAACACGTGTTAGG, TATGTCACGTGCGGGT, GTTGGCACGTGTGCTT

Relative binding free energy, -0.02 kcal/mol:
GGTGTCACGTGTGCGT, TGTACCACGTGTGGTG

Relative binding free energy, 0.4 kcal/mol:
CATTGCACGTGAATGT, AGGTTCACGTGAATGA

Relative binding free energy, -0.04 kcal/mol:
ACGGGCACGTGTCGGT, TAAAGCACGTGTTCTG, TGGGCCACGTGGGATT, TGAGGCACGTGACGGA

Relative binding free energy, 0.02 kcal/mol:
TTGGGCACGTGGATCG, TATTGCACGTGTGTAT, TGCTACACGTGGTTTT

Relative binding free energy, -0.03 kcal/mol:
GTCAACACGTGGGTGG, GATGCCACGTGGGCAG, GACGTCACGTGGTTTA, CGGGACACGTGGTGGG, TTCTGCACGTGGTTGG, GTCGTCACGTGGTGTC

Relative binding free energy, -0.08 kcal/mol:
TGCTGCACGTGGTAGT, TATCGCACGTGCGTTG, ATGTGCACGTGTCGTG

Relative binding free energy, 0.09 kcal/mol:
TTGGTCACGTGTAAAT, AATATCACGTGTATTA, ATGAACACGTGTTGAT, TTCTGCACGTGTATGG, GTTAGCACGTGTGGGC, AGCTTCACGTGGGAGG

Relative binding free energy, 0.12 kcal/mol:
ATGGGCACGTGAGTAG, TCTTGCACGTGAAGGG, TTCATCACGTGCGTGG

Relative binding free energy, 0.35 kcal/mol:
GCATTCACGTGATGGG

Relative binding free energy, 0.1 kcal/mol:
ATAGTCACGTGTCTAT, CAGTACACGTGGAGGT, TTCATCACGTGGTGGG

Relative binding free energy, 0.24 kcal/mol:
CTTTACACGTGTGGCT, TTATTCACGTGGATCG, GTCGTCACGTGAGTTA, GAAGTCACGTGCGGTG, TGGTTCACGTGGCTAA

Relative binding free energy, 0.14 kcal/mol:
ATGGTCACGTGTCGGA, GATCACACGTGTGGTT, TTTAGCACGTGACAGT, GTGGTCACGTGTTTAT, GGTTGCACGTGCAGAT, CGCGGCACGTGAGTGA

Relative binding free energy, -0.2 kcal/mol:
GTGTCCACGTGGGGTA

Relative binding free energy, 0.32 kcal/mol:
TAATTCACGTGTAGCG, TTTCTCACGTGTAGAT

Relative binding free energy, -0.25 kcal/mol:
AGATGCACGTGGGAGG

Relative binding free energy, 0.22 kcal/mol:
GCATTCACGTGTGGAT, GGTCGCACGTGATGGT, AGTTCCACGTGAATTT, TTTTTCACGTGGTACG, GCGGTCACGTGATATG, TGCTACACGTGAGTGT, TATAGCACGTGAGGAG

Relative binding free energy, 0.08 kcal/mol:
TGTAGCACGTGGAATT, AGCGTCACGTGACGTG, TCTGGCACGTGATCGT, GGCATCACGTGTATGG, CTTTTCACGTGTAAGG, AATGACACGTGTATAG, GTCAACACGTGTGGAG

Relative binding free energy, -0.14 kcal/mol:
TCATGCACGTGGTCGT, GGGTGCACGTGGCCTG, GCGGGCACGTGGCAGG

Relative binding free energy, -0.13 kcal/mol:
AGTGGCACGTGCAGTG, TATGGCACGTGTATTC, TTTGGCACGTGGCGAT, TCTGGCACGTGCAGGT, TGTGACACGTGGAGTA, AATAGCACGTGGGTAA

Relative binding free energy, -0.07 kcal/mol:
AGTCACACGTGGTGAG, GTTGCCACGTGTGTAT, GAAATCACGTGGGAGG, TGTAACACGTGGGTGT, AAGGGCACGTGCGTAG

Relative binding free energy, 0.27 kcal/mol:
AAAGTCACGTGAAGTT

Relative binding free energy, 0.04 kcal/mol:
TATTCCACGTGCGGGT, ATGAACACGTGTGGGT, GTTAACACGTGTTATA, GGGAACACGTGGTGAA

Relative binding free energy, 0.06 kcal/mol:
TTTTCCACGTGTTATG, CGGGACACGTGGTTTT, AGTGACACGTGTGTAT, AGTATCACGTGGTTAG, AGTCACACGTGTTGGT, GCGTACACGTGGGTGC

Relative binding free energy, 0.15 kcal/mol:
TGTTACACGTGTTGAT, GAGTACACGTGTTCGT, TTCTTCACGTGGGTAA, AATTGCACGTGGAATT

Relative binding free energy, -0.28 kcal/mol:
CGGGGCACGTGGCTGT, AATGCCACGTGGGTAT

Relative binding free energy, 0.01 kcal/mol:
ATAGTCACGTGTACTG, GAGGGCACGTGTTAGG, AGTGTCACGTGGTTCT, CGGGGCACGTGCGATT, GTTGGCACGTGGAATG, TGAACCACGTGTGGTG, AGGGACACGTGGCTTA, ATATGCACGTGGAAAT

Relative binding free energy, -0.16 kcal/mol:
TATGGCACGTGGGGGT, GCCAGCACGTGGGGTT, TTAGACACGTGGGCGG

Relative binding free energy, -0.22 kcal/mol:
GGCAGCACGTGGCAGG

Relative binding free energy, -0.01 kcal/mol:
GGTCGCACGTGGTATT, AGTCTCACGTGGGTCG

Relative binding free energy, 0.26 kcal/mol:
GAGGACACGTGTAGAT, TCGTACACGTGATTTA, GGGCGCACGTGATATT

Relative binding free energy, 0.31 kcal/mol:
TCGTACACGTGATGAG

Relative binding free energy, 0.11 kcal/mol:
GTCGTCACGTGTCGTT

Relative binding free energy, 0.17 kcal/mol:
GGTCACACGTGGTTTA, TTTCTCACGTGGTTGT, TACGGCACGTGAATGT, TGTAACACGTGTGGGC

Relative binding free energy, 0.21 kcal/mol:
GGCTACACGTGATGGT, TTTAGCACGTGAGGAC, GTCTGCACGTGAGCGG, TGTTTCACGTGCTCGG, GGCGTCACGTGGAATG

Relative binding free energy, 0.05 kcal/mol:
AGTTGCACGTGTACGT, AGTGTCACGTGGCTCT, TACGACACGTGTGGGG, AAGGACACGTGTGATG

Relative binding free energy, 0.42 kcal/mol:
GCTGTCACGTGAAGTT

Relative binding free energy, 0.18 kcal/mol:
CAATTCACGTGGGGTG, AGCGTCACGTGATGGT, AGTTGCACGTGAGGGC, ATGTTCACGTGTCTAT, GAGTGCACGTGTGGAC

Relative binding free energy, 0.28 kcal/mol:
AGTTTCACGTGACTGG, CAGGTCACGTGATGTG

Relative binding free energy, 0.38 kcal/mol:
TTGTTCACGTGCGATG

Relative binding free energy, 0.33 kcal/mol:
ATAGTCACGTGAGTAG, CGTCTCACGTGTGAGG

Relative binding free energy, -0.36 kcal/mol:
CTGAGCACGTGGGGTG

Relative binding free energy, 0.07 kcal/mol:
TTTATCACGTGCATTG, TCGGTCACGTGGTCGT, TCGGTCACGTGGTTGT, ACGGTCACGTGTCGGG, GTGTTCACGTGGGTCA, GGTAACACGTGCGGTT, ACGGGCACGTGTAAGT, AGTGTCACGTGGTATA

Relative binding free energy, -0.09 kcal/mol:
GGGCGCACGTGTCAGT, AAAAGCACGTGGTCGG, TGAGGCACGTGTTCTT

Relative binding free energy, 0.23 kcal/mol:
GTAGTCACGTGCGGCT, GTGTTCACGTGCAATG, GTTGTCACGTGATGGT, GATTTCACGTGTTTTC, TAGTTCACGTGGGTGT

Relative binding free energy, 0.39 kcal/mol:
AGTTGCACGTGAAGGG, TGCTTCACGTGTGTTC

Relative binding free energy, 0.29 kcal/mol:
TATTTCACGTGGTTTG, TAATTCACGTGTGTAC

Relative binding free energy, 0.34 kcal/mol:
CAGGACACGTGAGGGG, GTATTCACGTGGCTTC

Relative binding free energy, 0 kcal/mol:
TCGATCACGTGGGTCT, AGTTGCACGTGGATGT, AGTGGCACGTGTTCGG, AGTTACACGTGTTCGT

Relative binding free energy, -0.15 kcal/mol:
TGTGGCACGTGCCGAG, TTTCGCACGTGGCGTG, GTTAACACGTGGGCTA, GTAGGCACGTGCAGGT, TACGGCACGTGGGTCT

Relative binding free energy, -0.17 kcal/mol:
GTGGGCACGTGCATTA, AATAGCACGTGGGGGA

Relative binding free energy, -0.29 kcal/mol:
AATAACACGTGGTGTT

Relative binding free energy, 0.19 kcal/mol:
GGTATCACGTGCGTTT, GTTATCACGTGTGCGC, ATTAGCACGTGAGTCT, TTTTTCACGTGGGGGT, GGGTCCACGTGTTGAA

Relative binding free energy, -0.06 kcal/mol:
AGTTCCACGTGGATGT

Relative binding free energy, 0.16 kcal/mol:
TGTTACACGTGTTTTT, TTCTTCACGTGTAGAG

Relative binding free energy, 0.3 kcal/mol:
GGTTTCACGTGTTCTG, CGTTTCACGTGATGTT, AGATTCACGTGGGTTG

Relative binding free energy, 0.13 kcal/mol:
AGACTCACGTGTGTGT, ATGGTCACGTGTGCCG, GAGTGCACGTGACGGG, TTGTTCACGTGCGTGA, ATGGACACGTGGATAT

Relative binding free energy, 0.37 kcal/mol:
GGGATCACGTGATCGT, AATTTCACGTGGACGG

Relative binding free energy, 0.53 kcal/mol:
GGGTTCACGTGAGTAG

Relative binding free energy, -0.11 kcal/mol:
GGTTGCACGTGTTCAG, GTCGGCACGTGGGTAT, TGTAGCACGTGCGGCG, GCTCGCACGTGGGTTT, GGGGCCACGTGCTCGG, GGGTGCACGTGGGGCT, GCTGGCACGTGATAGT
